According to the supplement of paper PMC4967469:

Each cell line was assayed with CCOc1cc2ncc(C#N)c(Nc3ccc(F)c(Cl)c3)c2cc1NC(=O)/C=C/CN(C)C [EKB-569] (assay: Viability of human cancer cell lines after 72 h of drug (GDSC screen)). Conditions: top dose inferred.
Protocol: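 Human cancer cell lines in 384-well plates, medium with 10% serum, drug for 72 h over a 256-fold dose range (nine 2-fold or five 4-fold steps up to the top dose). Adherent lines were fixed and stained with the nucleic acid dye Syto60, suspension lines read with resazurin; signal relative to control wells, capped at 0 and 100%. One two-parameter sigmoid per drug and line, fitted in a mixed model over all curves with the slope shared within a line.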
“EGI-1 (biliary tract, adherent, top dose 2.5 µM)” gave an AUC of 0.9 and an IC50 greater than 2500 nM. “SNU-423 (liver, adherent, top dose 2.5 µM)” showed an AUC of 0.831 and an IC50 of 1970 nM. For “SK-N-FI (neuroblastoma, adherent, top dose 2.5 µM)”, the AUC was 0.959 and the IC50 was greater than 2500 nM. “KMS-11 (myeloma, suspension, top dose 2.5 µM)” gave an AUC of 0.991 and an IC50 greater than 2500 nM. Cell Line “PCI-30 (head and neck, adherent, top dose 2.5 µM)” has an AUC of 0.956 and an IC50 greater than 2500 nM. “LU-65 (large cell lung carcinoma, suspension, top dose 2.5 µM)” showed an AUC of 0.878 and an IC50 greater than 2500 nM. “K2 (melanoma, adherent, top dose 2.5 µM)” gave an AUC of 0.97 and an IC50 greater than 2500 nM. Cell Line “MEG-01 (chronic myeloid leukaemia, suspension, top dose 2.5 µM)” has an AUC of 0.591 and an IC50 of 273 nM. “NCI-H1734 (lung adenocarcinoma, adherent, top dose 20 µM)” showed an AUC of 0.791 and an IC50 of 9970 nM. In the case of “HuO9 (osteosarcoma, adherent, top dose 2.5 µM)”, the AUC is reported as 0.93 and the IC50 is reported as greater than 2500 nM. “SCC-15 (head and neck, adherent, top dose 2.5 µM)” was tested, and the AUC was 0.723 and the IC50 was 852 nM. “CAL-27 (head and neck, adherent, top dose 2.5 µM)” gave an AUC of 0.619 and an IC50 of 334 nM. In the case of PEO1 (ovary, adherent, top dose 2.5 µM), the AUC is reported as 0.982 and the IC50 is reported as greater than 2500 nM. Work on “NCI-H1155 (large cell lung carcinoma, suspension, top dose 2.5 µM)” yielded an AUC of 0.981 and an IC50 greater than 2500 nM. For “LOU-NH91 (lung squamous cell carcinoma, adherent, top dose 2.5 µM)”, the AUC was 0.962 and the IC50 was greater than 2500 nM. In the case of “A204 (rhabdomyosarcoma, adherent, top dose 2.5 µM)”, the AUC is reported as 0.884 and the IC50 is reported as greater than 2500 nM. “ABC-1 (lung adenocarcinoma, adherent, top dose 2.5 µM)” showed an AUC of 0.834 and an IC50 of 2110 nM. “MOG-G-UVW (glioma, adherent, top dose 2.5 µM)” gave an AUC of 0.97 and an IC50 greater than 2500 nM. “PANC-02-03 (pancreas, adherent, top dose 2.5 µM)” gave an AUC of 0.806 and an IC50 of 1580 nM. With “LU-139 (small cell lung carcinoma, suspension, top dose 2.5 µM)” the AUC was 0.954 and the IC50 was greater than 2500 nM. For “MIA-PaCa-2 (pancreas, adherent, top dose 2.5 µM)”, the AUC was 0.984 and the IC50 was greater than 2500 nM. In the case of “MOG-G-CCM (glioma, adherent, top dose 2.5 µM)”, the AUC is reported as 0.836 and the IC50 is reported as 2070 nM. “Raji (Burkitt lymphoma, suspension, top dose 2.5 µM)” showed an AUC of 0.988 and an IC50 greater than 2500 nM. Work on “SNU-475 (liver, adherent, top dose 2.5 µM)” yielded an AUC of 0.978 and an IC50 greater than 2500 nM. In the case of “LB1047-RCC (kidney, adherent, top dose 2.5 µM)”, the AUC is reported as 0.772 and the IC50 is reported as 1090 nM. For “SK-MEL-28 (melanoma, adherent, top dose 2.5 µM)”, the AUC was 0.986 and the IC50 was greater than 2500 nM. “JHH-1 (liver, adherent, top dose 2.5 µM)” gave an AUC of 0.382 and an IC50 of 71.7 nM. “OCUB-M (breast, adherent, top dose 2.5 µM)” gave an AUC of 0.349 and an IC50 of 63.5 nM. Hey (ovary, adherent, top dose 2.5 µM) gave an AUC of 0.902 and an IC50 greater than 2500 nM. With “H2804 (mesothelioma, adherent, top dose 2.5 µM)” the AUC was 0.986 and the IC50 was greater than 2500 nM. For “RXF393 (kidney, adherent, top dose 2.5 µM)”, the AUC was 0.885 and the IC50 was greater than 2500 nM. Work on “WM35 (melanoma, adherent, top dose 2.5 µM)” yielded an AUC of 0.958 and an IC50 greater than 2500 nM. For “M14 (melanoma, adherent, top dose 2.5 µM)”, the AUC was 0.987 and the IC50 was greater than 2500 nM. With “NCI-H1581 (large cell lung carcinoma, semi-adherent, top dose 2.5 µM)” the AUC was 0.986 and the IC50 was greater than 2500 nM. With “MC-IXC (neuroblastoma, adherent, top dose 2.5 µM)” the AUC was 0.982 and the IC50 was greater than 2500 nM. “REH (B-cell leukaemia, suspension, top dose 2.5 µM)” showed an AUC of 0.67 and an IC50 of 456 nM. In the case of “HCC1143 (breast, adherent, top dose 2.5 µM)”, the AUC is reported as 0.845 and the IC50 is reported as greater than 2500 nM. “ES1 (Ewing sarcoma, adherent, top dose 2.5 µM)” gave an AUC of 0.98 and an IC50 greater than 2500 nM. Work on “COLO-679 (melanoma, adherent, top dose 2.5 µM)” yielded an AUC of 0.942 and an IC50 greater than 2500 nM. Work on “NCI-SNU-5 (stomach, suspension, top dose 2.5 µM)” yielded an AUC of 0.989 and an IC50 greater than 2500 nM. Work on “KMRC-1 (kidney, adherent, top dose 2.5 µM)” yielded an AUC of 0.977 and an IC50 greater than 2500 nM. With “HT-1080 (fibrosarcoma, adherent, top dose 2.5 µM)” the AUC was 0.988 and the IC50 was greater than 2500 nM. Cell Line “KM12 (large intestine, adherent, top dose 20 µM)” has an AUC of 0.714 and an IC50 of 5330 nM. In the case of “LAN-6 (neuroblastoma, adherent, top dose 2.5 µM)”, the AUC is reported as 0.983 and the IC50 is reported as greater than 2500 nM. With “NCI-H630 (large intestine, adherent, top dose 20 µM)” the AUC was 0.788 and the IC50 was 9510 nM. “LCLC-103H (large cell lung carcinoma, adherent, top dose 2.5 µM)” showed an AUC of 0.942 and an IC50 greater than 2500 nM. “Detroit562 (head and neck, adherent, top dose 2.5 µM)” showed an AUC of 0.961 and an IC50 greater than 2500 nM. For “COR-L95 (small cell lung carcinoma, adherent, top dose 2.5 µM)”, the AUC was 0.963 and the IC50 was greater than 2500 nM. In the case of “HCC2998 (large intestine, adherent, top dose 20 µM)”, the AUC is reported as 0.809 and the IC50 is reported as 10100 nM. “SW1783 (glioma, adherent, top dose 2.5 µM)” gave an AUC of 0.97 and an IC50 greater than 2500 nM. “G-292 Clone A141B1 (osteosarcoma, adherent, top dose 2.5 µM)” was tested, and the AUC was 0.944 and the IC50 was greater than 2500 nM. “JVM-3 (lymphoid neoplasm, suspension, top dose 2.5 µM)” gave an AUC of 0.975 and an IC50 greater than 2500 nM. In the case of “HCC-827 (lung adenocarcinoma, adherent, top dose 2.5 µM)”, the AUC is reported as 0.282 and the IC50 is reported as 34 nM. “LB831-BLC (bladder, adherent, top dose 2.5 µM)” gave an AUC of 0.982 and an IC50 greater than 2500 nM. In the case of “NCI-H2009 (lung adenocarcinoma, adherent, top dose 2.5 µM)”, the AUC is reported as 0.977 and the IC50 is reported as greater than 2500 nM. For “KCL-22 (chronic myeloid leukaemia, suspension, top dose 2.5 µM)”, the AUC was 0.869 and the IC50 was 1700 nM. “FU-OV-1 (ovary, adherent, top dose 2.5 µM)” was tested, and the AUC was 0.852 and the IC50 was greater than 2500 nM. With “DU-4475 (breast, suspension, top dose 2.5 µM)” the AUC was 0.944 and the IC50 was greater than 2500 nM. In the case of “NCI-H69 (small cell lung carcinoma, suspension, top dose 2.5 µM)”, the AUC is reported as 0.982 and the IC50 is reported as greater than 2500 nM.

By IC50 is meant the dose at which the fit gives 50% viability; a fit beyond the top or the lowest dose is shown as a bound at that dose. AUC, from the same fit, is the share of area under the viability curve across the 256-fold dose range: 1 means no effect, lower means more sensitive. A top dose marked as inferred was derived from the fitted curves, not read from the paper.
